Hit rate of the full screen: of about 71,000 compounds, about 1,800 (2.5%) were called active. The shares of active, inactive and inconclusive entries below differ from those in the screen. Calls come from the whole dose curve; as a rule, active = well fitted activation curve with a large enough effect in the signal ratio, with a control signal flat (not every such curve was filed as active); inconclusive = small, poorly fitted or top-dose-only effect, or effect the other way, or a change in a side signal; inactive = flat fitted curve, though single readings scatter; the % refers to the signal ratio. A potency beside an inconclusive call is a rough fit, not a confirmed value.
Experiment: Cell signaling CRE-BLA (Fsk stim); for activity change, negative = inhibition: % of control where 0% means no effect
Conditions: CHO CRE-bla reporter (cAMP response element driving beta-lactamase), forskolin EC10, beta-lactamase ratio; activity change, negative = inhibition: at 38.2 µM (top of the series) unless noted
Outline: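 Modulation of forskolin signalling: compounds in titration series added with EC10 NKH 477 to CHO cells carrying a CRE-driven beta-lactamase reporter, 3 h, 37C. CCF4 FRET ratio (460/530 nm, ex 405 nm) gives %activity and AC50.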
Potency is the fitted concentration of half-maximal effect; tags give direction and shape of the fitted curve.

| Compound | activity change, negative = inhibition | Potency |
| --- | --- | --- |
| O=C(Nc1ccc(Cl)cn1)C1CCCN1S(=O)(=O)c1ccc(Cl)cc1 (configuration not stated) | inconclusive: -22.5% |  |
| Cc1ccccc1C(=O)NC1CCN(Cc2nnnn2Cc2ccccc2)CC1 | inconclusive: -20.6% |  |
| CCCn1c(N)c(C(=O)CSc2nnc(-c3ccco3)n2Cc2ccccc2)c(=O)[nH]c1=O | inactive: -3.35% |  |
| NCCC[C@@H](CC(=O)N[C@@H]1CCCC[C@H]1C(=O)N[C@H](CC(=O)N[C@@H](CCC(=O)O)CC(=O)O)Cc1ccccc1)NC(=O)C[C@H](CO)NC(=O)[C@@H]1CCCC[C@H]1N | inconclusive: -16.8% |  |
| O=S(=O)(c1ccc(Cl)c(Cl)c1)N1CCc2nc3ccccc3n2CC1 | inconclusive: -10.8% [at 7.6 µM] |  |
| O=C(CSc1nnnn1-c1ccccc1)N1CCc2ccccc21 |  | inconclusive: 15.8 µM [rising, partial curve] |
| CCCCOc1ccc(/C(O)=C2/C(=O)C(=O)N(CCCOC)C2c2ccncc2)cc1C (configuration not stated) | inconclusive: 0.338% [at 7.6 µM] |  |
| CCN(c1ccccc1)c1cc(C)nc2nc(C)nn12 |  | inconclusive: 10 µM [rising, partial curve] |
| O=C(CSc1ncc(-c2ccccc2)nn1)NCc1ccco1 | inconclusive: 24.2% |  |
| COc1ccc(OC)c(NC(=O)NC2(C(F)(F)F)Oc3ccccc3O2)c1 |  | inconclusive: 15.8 µM [falling, single point] |
| CC(OC(=O)c1ccccc1NCc1ccco1)C(=O)Nc1ncc(Cl)cc1Cl (configuration not stated) | inactive: 15.9% |  |
| CC1CCc2c(sc3ncnc(N4CCOCC4)c23)C1 (configuration not stated) |  | inconclusive: 3.16 µM [rising, single point] |
| CN(C)C1NC(=O)c2cc(-c3ccccc3)sc2N1 (configuration not stated) |  | inconclusive: 0.0251 µM [falling, full curve, poor fit] |
| CCc1ccccc1NC(=O)c1cnc2n(c1=O)CCS2 |  | inconclusive: 10 µM [rising, single point] |
| COC(=O)[C@@]1(Cc2ccccc2)C=C[C@@H](C)N1C(=O)c1ccccc1 | inactive: -22.4% |  |
| O=S(=O)(Nc1ccc2c(c1)nc1n2CCN(Cc2ccccc2)C1)c1ccccc1 | inactive: -8.23% |  |
| CC(=O)Oc1c(S(=O)(=O)c2ccccc2)c(C)nn1C(C)(C)C | inconclusive: 0.714% |  |
| COc1ccc(N(CC(=O)NCCSc2ccccn2)S(C)(=O)=O)cc1Cl |  | inconclusive: 12.6 µM [rising, single point] |
| CCCOc1ccc([C@@H]2C3CN(C(=O)OCC)CC=C3C(C#N)=C(N)C2(C#N)C#N)cc1OC (some centres not stated) |  | inconclusive: 12.6 µM [rising, single point] |
| COc1ccccc1CCn1c(=O)c(-c2cn(C)c3ccccc23)nc2cncnc21 |  | active: 0.398 µM |
| CCn1c(SCC(=O)Nc2cccc(C)c2)nc2c(c1=O)SC(C)C2 (configuration not stated) |  | inconclusive: 10 µM [rising, single point] |

| Compound | activity change, negative = inhibition | Potency |
| --- | --- | --- |
| COc1ccccc1CCNC(=O)CSc1nc(-c2ccco2)cc(C(F)(F)F)n1 | inactive: -15.3% |  |
| N[C@]1(C(=O)O)CCc2cc(C(=O)O)ccc21 |  | inactive |
| Nc1nc(Nc2cccc(F)c2)nc2ccccc12 | inactive: -9.42% |  |
| COc1ccc2c(Cl)c(C(N)=O)sc2c1 | inactive: -7.53% |  |
| COc1ccc(OC)c(-c2cc(C(=O)NCc3cccs3)no2)c1 |  | inconclusive: 7.94 µM [rising, partial curve] |
| CC1(C)Cc2ccccc2-c2nnc(SCC(=O)Nc3nc4ccccc4s3)n21 |  | active: 3.98 µM |
| Cc1ccc(C2c3sc(=O)[nH]c3SC3C(=O)NC(=O)C32)cc1 (configuration not stated) | inconclusive: -12.9% |  |
| c1cc(CSc2nnc(-c3ccc4c(c3)OCO4)o2)ccn1 |  | inconclusive: 5.01 µM [falling, single point] |
| CC(C)(C)NC(=O)CSc1nnc(-c2ccccn2)n1-c1ccccc1 | inactive: -1.03% |  |
| CCN(C)c1ccc(/C=N\n2nnnc2N)cc1 |  | active: 7.94 µM |
| CCOC(=O)N1CCC(NC(=O)Cc2cn(C)c3ccccc23)CC1 |  | inconclusive: 0.126 µM [falling, full curve, poor fit] |
| CNS(=O)(=O)c1cccc(C(=O)OCC(=O)c2cc(C)n(-c3ccc4c(c3)OCO4)c2C)c1 |  | inconclusive: 15.8 µM [rising, single point] |
| CCOC(=O)C1Cc2c([nH]c3ccccc23)CN1 (configuration not stated) | inconclusive: -3.61% |  |
| COc1ccc2[nH]c3c(NCCN4CCCCC4)ncnc3c2c1 |  | inconclusive: 20 µM [rising, single point] |
| CCOC(=O)c1c(NC(=O)c2ccc(-n3cnnn3)cc2)sc2c1CCCC2 | inconclusive: 15.9% |  |
| CSc1nc2nc(C)cc(-c3ccccc3)n2n1 |  | inconclusive: 25.1 µM [rising, single point] |
| CC(C)(C)n1nc2c(c1NC(=O)COc1ccc(Cl)cc1)CSC2 | inconclusive: -20.7% |  |
| CCCCOc1ccc(C(=O)NCc2ccco2)cc1 | inconclusive: -5.63% |  |
| CCOC(=O)C1CCCN(C(=O)C2CC(=O)N(c3ccc(C)cc3)C2)C1 (configuration not stated) | inconclusive: -8.62% |  |
| Cc1cc(C)c2[nH]c(=O)c(C(c3nnnn3C3CCCC3)N3CCOCC3)cc2c1 (configuration not stated) | inactive: -4.43% |  |
| CN(CC(=O)N1CC=C(c2ccccc2)CC1)S(=O)(=O)c1cnc[nH]1 | inconclusive: -6.53% |  |

| Compound | activity change, negative = inhibition | Potency |
| --- | --- | --- |
| O=C(CSc1nc(O)c(C2CCCCC2)c(=O)[nH]1)Nc1ccc(Cl)cc1 | inactive: -3.76% |  |
| COc1cccc(NC(=O)CSc2ccc3nnc(-c4ccncc4)n3n2)c1 |  | inconclusive: 12.6 µM [rising, single point] |
| CCC1SC2=NCCN2C1(O)c1ccc(Cl)cc1 (configuration not stated) | inconclusive: 8.87% |  |
| COc1ccc(NC(=O)c2sc(SC)nc2N)cc1 |  | inconclusive: 10 µM [rising, single point] |
| COCCn1c(=O)c(-c2ccc(F)cc2)nc2cnc(Oc3ccccc3)nc21 | inactive: 10.9% |  |
| Brc1ccc(-c2nn3c(-c4ccccn4)nnc3s2)o1 |  | inconclusive: 5.01 µM [rising, partial curve] |
| CCCc1cc2c(n1CCc1ccc(Cl)cc1)C(C)C1CN(C(=O)c3ccccc3)C(C)(C(=O)OC)C21 (configuration not stated) | inconclusive: -1.78% |  |
| COC(=O)c1ccc(NS(=O)(=O)c2ccc3c(c2)oc(=O)n3C)cc1 | inactive: -2.87% |  |
| Oc1ccc(OCc2ccccc2)cc1 | inactive: 7.2% [at 17.1 µM] |  |
| CCCCn1c(SCC(=O)c2cc(OC)ccc2OC)nc2cc(S(N)(=O)=O)ccc21 |  | inconclusive: 15.8 µM [rising, partial curve] |
| O=C1CC[C@H](NC(=O)c2ccccc2)C(=O)N1 |  | inconclusive: 1 µM [falling, single point] |
| COC(=O)c1ccccc1NC(=O)CSc1ccccc1 | inconclusive: -3.6% [at 7.6 µM] |  |
| COc1ccccc1CNC(=O)c1cc2c(=O)n(C)c3ccccc3c2n1C |  | inconclusive: 3.16 µM [rising, single point] |
| COC(=O)c1ccccc1NC(=O)CSc1n[nH]c(CC(C)C)n1 | inactive: 15.2% |  |
| CNC(=O)c1cc2ccc(OC)cc2oc1=O | inconclusive: 13.4% |  |
| COc1cccc(C(=O)Nc2ccc3nc(N4CCOCC4)cc(C)c3c2)c1 |  | inconclusive: 10 µM [rising, partial curve] |
| CN(C)c1nc(-c2ccccc2C(F)(F)F)nc2ccccc12 | inactive: 10% |  |
| CCOC(=O)CN1C(=O)C(C)(C)Oc2ccc(C(=O)Nc3ccccc3OC)cc21 | inconclusive: 17.6% |  |
| CC1=C(C(=O)OC(C)C)C(C2CC=CCC2)NC(=O)N1 (configuration not stated) | inconclusive: 11.4% [at 7.6 µM] |  |
| Cc1cccc(NC(=O)C2CCCN(C(=O)NC3CCCCC3)C2)c1C (configuration not stated) | inactive: -1.43% |  |
| CCOC(=O)c1ccc2ncc(C(=O)OCC)c(NCCCN3CCOCC3)c2c1 |  | inconclusive: 12.6 µM [rising, partial curve] |

| Compound | activity change, negative = inhibition | Potency |
| --- | --- | --- |
| CN(C)c1ncc2nc(-c3cccs3)c(=O)n(C[C@H]3CCCO3)c2n1 |  | active: 1.58 µM |
| C[C@@H](C(=O)NCCF)[C@H]1C[C@]1(C)[C@H](NC(=O)OCc1ccccc1)c1ccccc1 | inactive: -16.2% |  |
| CCn1cc(C(=O)NCc2ccc(OC)cc2OC)c(=O)c2ccc(C)nc21 | inconclusive: 19.1% |  |
| COC(=O)Cn1c(CCS(=O)(=O)c2ccc(C)cc2)nc2ccccc21 | inactive: 5% |  |
| COc1cccc(-c2cncnc2Nc2ccccc2)c1 | inactive: 0.64% |  |
| CC(=O)c1c(C(C)=O)c(C)n(NC(=O)c2ccccc2O)c1C | inactive: -6.1% |  |
| COc1cccc(Cn2c(=O)c(CCc3ccccc3)nc3cnc(OC)nc32)c1 |  | active: 12.6 µM |
| COc1ccccc1CNc1cc(-c2ccccc2Cl)ncn1 | inconclusive: 9.56% |  |
| OC(Cn1cccn1)c1ccccc1 (configuration not stated) | inactive: -0.265% |  |
| CCCCCNC(=O)c1ccc2c(=O)n(CC3CCCO3)c(=O)[nH]c2c1 (configuration not stated) | inconclusive: -9.74% |  |
| C=CCn1c(N)c(C(=O)OCC(C)C)c2nc3ccccc3nc21 |  | inconclusive: 10 µM [rising, partial curve] |
| COCCCNC(=O)CCCn1c(=O)[nH]c2ccccc2c1=O | inconclusive: 3.65% |  |
| CC(=O)COc1ccc2c3c(c(=O)oc2c1C)CCCCC3 |  | active: 2 µM |
| CCCn1c(=O)c2c(ncn2C)n(CCC)c1=O |  | inconclusive: 15.8 µM [rising, partial curve] |
| Cc1ccc(C)c(N2CCN(C(c3ccncc3)c3nnnn3Cc3ccccc3)CC2)c1 (configuration not stated) | inactive: -9.17% |  |
| CCc1cccc2c3c([nH]c12)[C@](CC)(CC(=O)O)OCC3 | inactive: 6.16% |  |
| CN(C)CCNCCN | inactive: -5.02% [at 7.6 µM] |  |
| Cc1c(C(=O)OCc2ccccc2)[nH]c2c1C(=O)CC(c1ccco1)C2 (configuration not stated) |  | active: 0.794 µM |
| COc1ccc(OC)c(C2CC(=O)C3=C(C2)NC(=O)CC3c2ccc(O)c(OC)c2)c1 (configuration not stated) | inconclusive: 14.9% |  |

— PubChem BioAssay AID662 (National Center for Advancing Translational Sciences (NCATS), 2007)
